In the supplement of paper PMC4604168 (melanoma cell lines):
This is one part of the list. Repeats are few or missing, and single values can be far off.

Experiments:
Experiment in all cases: cell count relative to DMSO control; melanoma cells; higher = more viable cells
Conditions in all cases: library dose: low library concentration; 72 h
[1] = tested on: MZ2-MEL
[2] = tested on: MeWo
[3] = tested on: RPMI7951
[4] = tested on: RVH-421
[5] = tested on: SkMel28
[6] = tested on: SkMel2
[7] = tested on: SkMel30
[8] = tested on: SkMel5
[9] = tested on: UACC257
[10] = tested on: UACC62
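Further: cell number obtained by counting DAPI-stained nuclei in high-throughput microscope images with image analysis software, screen run in 1,536-well plates.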

Row | SMILES | cell count [1] [%] | cell count [2] [%] | cell count [3] [%] | cell count [4] [%] | cell count [5] [%] | cell count [6] [%] | cell count [7] [%] | cell count [8] [%] | cell count [9] [%] | cell count [10] [%]
1 | C=CCNC1=C2C[C@@H](C)C[C@H](OC)[C@H](O)[C@@H](C)/C=C(\C)[C@H](OC(N)=O)[C@@H](OC)/C=C\C=C(/C)C(=O)NC(=CC1=O)C2=O [Tanespimycin] + NC(=O)Nc1cc(-c2cccc(F)c2)sc1C(=O)N[C@H]1CCCNC1 [AZD7762] (first compound 0.002 µM, partner dose 0.02 µM) | 106 | 107 | 81.2 | 112 | 125 | 110 | 111 | 83.8 | 108 | 85.1
2 | C=CCNC1=C2C[C@@H](C)C[C@H](OC)[C@H](O)[C@@H](C)/C=C(\C)[C@H](OC(N)=O)[C@@H](OC)/C=C\C=C(/C)C(=O)NC(=CC1=O)C2=O [Tanespimycin] + CC1(C)NC(=O)N(c2ccc([N+](=O)[O-])c(C(F)(F)F)c2)C1=O [nilutamide] (first compound 0.002 µM, partner dose 1 µM) | 108 | 101 | 94 | 122 | 103 | 99 | 113 | 84 | 89.3 | 98.4
3 | CS(=O)(=O)CCNCc1ccc(-c2ccc3ncnc(Nc4ccc(OCc5cccc(F)c5)c(Cl)c4)c3c2)o1 [lapatinib] + N#Cc1c(O)c2c(-c3ccc(-c4ccccc4O)cc3)csc2[nH]c1=O [A769662] (first compound 0.8 µM, partner dose 2 µM) | 100 | 102 | 96.7 | 94 | 100 | 97.9 | 93 | 119 | 97.1 | 93
4 | CN1CCN(c2ccc3nc(-c4c(N)c5c(F)cccc5[nH]c4=O)[nH]c3c2)CC1 [Dovitinib] + NC(=O)Nc1cc(-c2cccc(F)c2)sc1C(=O)N[C@H]1CCCNC1 [AZD7762] (first compound 0.1 µM, partner dose 0.02 µM) | 114 | 98.8 | 108 | 102 | 90 | 106 | 101 | 109 | 87 | 76.2
5 | CS(=O)(=O)CCNCc1ccc(-c2ccc3ncnc(Nc4ccc(OCc5cccc(F)c5)c(Cl)c4)c3c2)o1 [lapatinib] + O=C(O)C(=O)Nc1sc2c(c1C(=O)O)CCNC2 [TCS401] (first compound 0.8 µM, partner dose 1.66667 µM) | 92.8 | 90.3 | 105 | 91.9 | 104 | 94.6 | 96.9 | 99.3 | 95 | 97.9
6 | C[C@@H](Oc1cc(-c2cnn(C3CCNCC3)c2)cnc1N)c1c(Cl)ccc(F)c1Cl [Crizotinib] + COc1ccc(COc2ccc(Cc3cnc(N)nc3N)cc2OC)cc1 [GW2580] (first compound 0.2 µM, partner dose 1 µM) | 96 | 91.7 | 104 | 110 | 83.7 | 104 | 91.2 | 88.6 | 95.1 | 105
7 | CS(=O)(=O)CCNCc1ccc(-c2ccc3ncnc(Nc4ccc(OCc5cccc(F)c5)c(Cl)c4)c3c2)o1 [lapatinib] + Cc1ccc(NC(=O)c2cccc(N(C)C)c2)cc1NC(=O)c1ccc(O)cc1 [ZM336372] (first compound 0.8 µM, partner dose 2 µM) | 73.5 | 92.9 | 74.5 | 99.2 | 89.1 | 99.5 | 74.4 | 91.9 | 89 | 85.8
8 | CS(=O)(=O)CCNCc1ccc(-c2ccc3ncnc(Nc4ccc(OCc5cccc(F)c5)c(Cl)c4)c3c2)o1 [lapatinib] + OCCn1cc(-c2cnc3nnn(Cc4ccc5ncccc5c4)c3n2)cn1 [PF04217903] (first compound 0.8 µM, partner dose 1 µM) | 97.7 | 101 | 103 | 101 | 93.7 | 105 | 97.9 | 93.8 | 78.2 | 91.2
9 | CNC(=O)c1cc(Oc2ccc(NC(=O)Nc3ccc(Cl)c(C(F)(F)F)c3)cc2)ccn1 [sorafenib] + Cc1cc([N+](=O)[O-])ccc1NS(=O)(=O)c1cc(Cl)ccc1Cl [FH535] (first compound 0.4 µM, partner dose 1 µM) | 88.4 | 99.3 | 103 | 93 | 90.1 | 93.9 | 81.9 | 95 | 106 | 82.1
10 | CN1CCN(c2ccc3nc(-c4c(N)c5c(F)cccc5[nH]c4=O)[nH]c3c2)CC1 [Dovitinib] + O=C1NC(=O)/C(=C/c2ccc(-c3ccc(F)cc3O)o2)S1 [AS252424] (first compound 0.1 µM, partner dose 1 µM) | 84.6 | 82.2 | 94 | 100 | 87.8 | 92.3 | 64.2 | 82.6 | 78.2 | 83
11 | CS(=O)(=O)CCNCc1ccc(-c2ccc3ncnc(Nc4ccc(OCc5cccc(F)c5)c(Cl)c4)c3c2)o1 [lapatinib] + COc1cc2c(Oc3ccc4[nH]c(C)cc4c3F)ncnc2cc1OCCCN1CCCC1 [cediranib] (first compound 0.8 µM, partner dose 0.4 µM) | 95.8 | 93.4 | 91.4 | 93.6 | 81.8 | 92.8 | 94.9 | 81.3 | 98 | 75.5
